According to PubChem BioAssay AID1030 (National Center for Advancing Translational Sciences (NCATS), 2008):
Screen size: about 220,000 compounds; about 16,000 (7.3%) were called active. The inconclusive results got no clear call from the source; some entries with a clear call stand among them for comparison. The call rests on the fitted dose curve; in most records, active means well fitted inhibition curve with a large enough effect (not every such curve was filed as active); inconclusive means small, poorly fitted or top-dose-only effect, or another doubt; inactive means no such curve, though single readings can be large or run the other way. A potency beside an inconclusive call is a rough fit, not a confirmed value.

target: Aldehyde dehydrogenase 1A1 (Homo sapiens) (UniProt P00352); assay: qHTS Assay for Inhibitors of Aldehyde Dehydrogenase 1 (ALDH1A1); conditions: Purified ALDH1A1, NADH fluorescence, propionaldehyde substrate; series mostly up to 75.3 µM
Potency means the concentration at half of the fitted maximal effect; tags describe the fitted curve by direction and shape.

Sequence of UniProt P00352 (P00352 whole entry, looked up): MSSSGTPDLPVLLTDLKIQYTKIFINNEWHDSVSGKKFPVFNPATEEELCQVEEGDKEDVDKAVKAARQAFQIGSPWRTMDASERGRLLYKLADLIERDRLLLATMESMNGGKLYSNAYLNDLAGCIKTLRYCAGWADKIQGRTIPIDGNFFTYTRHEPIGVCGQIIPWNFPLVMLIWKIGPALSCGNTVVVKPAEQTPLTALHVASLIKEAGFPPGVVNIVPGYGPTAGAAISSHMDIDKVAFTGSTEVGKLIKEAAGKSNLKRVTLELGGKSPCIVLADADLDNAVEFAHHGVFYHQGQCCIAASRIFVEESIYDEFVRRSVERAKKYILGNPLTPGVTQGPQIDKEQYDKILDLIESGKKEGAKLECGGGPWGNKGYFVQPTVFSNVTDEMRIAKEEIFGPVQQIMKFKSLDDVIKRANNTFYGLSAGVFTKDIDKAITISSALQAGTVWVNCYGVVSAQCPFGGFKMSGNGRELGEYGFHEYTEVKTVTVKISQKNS

Potency, inactive:
COc1ccc(C2CC(c3cccs3)=NN2C(=O)CSc2nnc(N)s2)cc1OC (configuration not stated), O=C(CSC(=S)N1CCN(c2ccccc2)CC1)Nc1nc(-c2ccccc2)c(-c2ccccc2)o1, COc1cccc(OC)c1C(=O)Nc1ccc(Cc2ccncc2)cc1, Cc1snc(S(=O)(=O)Cc2c(Cl)cccc2Cl)c1C#N, CC1CCN(CCCCOc2ccc([N+](=O)[O-])cc2)CC1, OCC(O)C(O)C(O)C(O)c1nc2ccccc2[nH]1 (configuration not stated), O=c1c2cc(NC(=S)NC3CCCC3)ccc2nc2n1CCCCC2, CCOc1ccc(C2CC(=O)N(Nc3ccc([N+](=O)[O-])cc3[N+](=O)[O-])C2=O)cc1 (configuration not stated), CC(C)NC(=O)N1CC2(CCN(C(=O)c3cccn3C)CC2)C1, CC1(C)OC(c2ccccc2)=C/C(=C/C=C2C(=O)c3ccccc3C2=O)O1, O=C1Nc2ccc(Cl)cc2/C1=C/C1CC=CCC1 (configuration not stated), Nc1ncnc2c1cnn2C1CCCCC1, O=C(CSc1nnc(CNc2ccc(F)cc2)n1Cc1ccccc1)N1CCOCC1, Cc1ncoc1C(=O)Nc1ccc(Oc2ccccc2)cc1, Cc1cc(C)n(-c2nc(-c3ccc(Cl)c(Cl)c3)cs2)n1, CC1(C)C(N(O)C(=O)Nc2ccc(Cl)cc2)N(c2ccc(Cl)cc2)C(=O)N1CC(=O)NN (configuration not stated), Fc1ccc(NCc2nnc(SCc3nnc(-c4ccccc4)o3)n2Cc2ccccc2)cc1, OCCN(Cc1ccccc1)Cc1cccc(F)c1, COc1ccccc1C(=O)N(Cc1nc(-c2ccc(Cl)cc2)no1)C(C)C

Potency, active:
COC(=O)c1ccc(C(NC(=O)c2ccco2)[C@]2(C)C[C@H]2C2CCCCC2)cc1 (some centres not stated) 3.55 µM, Cc1ccc(Cn2c(CN3CCOCC3)nc3c2c(=O)n(C)c(=O)n3C)cc1 10 µM, COc1cccc(C(=O)CSc2nnnn2C2CCCCC2)c1 2.82 µM

Potency, inconclusive:
CCOc1ccc2c(c1)nc(SCC(=O)c1cccs1)n2C 39.8 µM [inhibitor, single point], O=C(Cn1c(=O)n(Cc2ccco2)c(=O)c2c3c(sc21)CCCC3)Nc1ccccc1 39.8 µM [inhibitor, single point], O=C1Oc2ccccc2C(=O)/C1=C\N1C(=O)N/C(=C\c2ccccc2O)C1=O 8.91 µM [inhibitor, single point], CCOC(=O)CSC1=C(C#N)C(c2ccco2)C(C(=O)OCc2ccccc2)=C(C)N1 (configuration not stated) 39.8 µM [inhibitor, single point], Nc1nnc(/C=C/c2ccccc2)s1 28.2 µM [inhibitor, single point], Cc1ccnc(N2C(=O)CSC2c2ccc(Cl)cc2)c1 (configuration not stated) 3.16 µM [inhibitor, single point], Cc1cc(C)c2ccc3c(C)c(C)n(C)c3c2n1 25.1 µM [inhibitor, partial curve], O=C1Nc2ccccc2C(O)(C(=O)NCc2ccc3c(c2)OCO3)N1c1ccc(Cl)c(Cl)c1 (configuration not stated) 0.562 µM [inhibitor, partial curve, poor fit], Cn1nnnc1SCC(=O)N(C1CCCCC1)C1CCS(=O)(=O)C1 (configuration not stated) 39.8 µM [inhibitor, single point], Cc1ccccc1C(=O)N1CCC(C(=O)N2CCN(S(=O)(=O)c3ccccc3F)CC2)CC1 39.8 µM [inhibitor, single point], O=C(CCCN1C(=O)c2cccnc2C1=O)N1CC(=O)N(CCc2ccccc2)C(=O)C1 39.8 µM [inhibitor, single point], O=C1NC(=O)c2cc(NC(=O)C3CCCCC3)ccc21 10 µM [inhibitor, partial curve], COc1cccc(NC(=O)C(Sc2nnc(-c3ccncc3)n2-c2ccc(Cl)cc2)c2ccccc2)c1 (configuration not stated) 12.6 µM [inhibitor, partial curve], O=C(Nc1ccc(F)cc1F)Nc1ccccc1C(=O)NCCN1CCNC1=O 39.8 µM [inhibitor, single point], Cc1cc2ncn(C3CC(=O)N(Cc4ccc(N5CCCC5=O)cc4)C3=O)c2cc1C (configuration not stated) 39.8 µM [inhibitor, single point], O=C(COC(=O)CNC(=O)c1ccccc1)Nc1ccc(S(=O)(=O)N2CCCC2)cc1 39.8 µM [inhibitor, single point], Cc1ccc(C(=O)O/N=C/c2c(C)nn(C)c2Cl)cc1 31.6 µM [inhibitor, single point], COc1ncc2nc(-c3ccc(F)cc3)c(=O)n(C)c2n1 35.5 µM [inhibitor, partial curve], Cc1ccc(-c2nn(-c3cccc(F)c3)cc2CN2CCN(c3ccccn3)CC2)o1 39.8 µM [inhibitor, single point], COc1ccc(-c2cc(C(F)(F)F)n3ncc(C(=O)NCc4ccco4)c3n2)cc1 28.2 µM [inhibitor, partial curve], O=C(c1ccccc1)c1ccc2nc(-c3ccco3)c(-c3ccco3)nc2c1 7.94 µM [inhibitor, partial curve], CC(C)(C)c1ccc(COn2c(=O)c(-c3ccco3)[n+]([O-])c3ccccc32)cc1 12.6 µM [inhibitor, partial curve, poor fit], COc1ccc(C2=NN(C(=O)CCCC(=O)O)C(c3cccs3)C2)cc1OC (configuration not stated) 28.2 µM [inhibitor, partial curve], CCOC(=O)Cc1csc(NC(=O)c2cccc(N3C(=O)CCC3=O)c2)n1 39.8 µM [inhibitor, single point], O=C(Nc1ccc(S(=O)(=O)Nc2cnc3ccccc3n2)cc1)c1ccc(Br)o1 25.1 µM [inhibitor, partial curve]
